Measurements reported in the RNAGym collection of RNA variant scans (doi:10.7554/elife.90254).
Read counts are not given, so values of variants with three or more changes are uncertain.

B1: LINE1-mini (parent)
chain: GGCAGAGCUCAACACAGCGUGGCAAAGUGGCUGUGGCUAGACUGCC

Variants of: B1
Assay: self-cleavage, relative activity (ratio to wild type); higher = more cleavage; in vitro, sequencing; the parent is a self-cleaving ribozyme

Variant | self-cleavage
A12U G17U G40U | 0.06
C13A G22U U43A C45G | 0
C13A A16U C31U C37A C46U | 0.06
C13A C15U G22C G27U C37U | 0.07
C13A A16U C45A C46G | 0.05
C13A G19U A26U | 0.41
C13A U32A C46U | 0
C13A G29A G30C | 0.01
A12U G29A G35C | 0.08
C13A C23A G36U | 0.7
C13A C31G G35A | 0.03
C13A A14G U34G C45A | 0.02
C13A A14U G36A C37G | 0.08
C13A G17U C18G G40A | 0.18
A12U U28G G30U C45U | 0.07
C13A A24C A26U U28C G35C | 0.08
C13A C18U G30C G35C G36U | 0.01
C13A G22A G40A | 0.08
C13A U32A G33A | 0.03
C13A G27C G40U | 0.1
C13A A26G C31G C42A | 0.01
C13A G30U U32G G35C | 0.07
C13A C18U U38A | 0.03
C13A U32G C46U | 0.03

Variant | self-cleavage
A12U G19A C42A | 0.11
C13A G22U U43A | 0.09
C13A C18A A25U C31A G44U | 0
C13A G17C G22C | 0.02
C13A G21U G35U | 0.74
C13A A14C G21U U34A | 0.06
A12U G22U A24U | 0.84
C13A C18U G21U G27C A41C | 0.01
C13A G27C U28C | 0.05
C13A G27A G36U G40U | 1.06
C13A G22C A25U U32G | 0.02
A12U G22A U28A | 0.26
C13A C18A U32G | 0.02
A12U G27U G36A | 0.01
A12U G27U G36C | 0.05
C13A C18G G36C U38A | 0.03
C13A A25C U38C | 0.17
C13A G19C C37U C46G | 0.01
C13A C18U G29U | 0.16
C13A G21U C31A | 0.06
A12U G36U C37G | 0
C13A U28G G30U | 0.15
A12U G29U C31G U38C G44A | 0.02
C13A U20A G33U G36U | 0.41

Variant | self-cleavage
C13A A24C C45U | 0.03
C13A A24U C31G A41G | 0.04
C13A G22U G36C C42A C45A | 0.01
A12U G30A U38A G44A | 0.07
A12U U20C G27U | 0.38
C13A G17C U20G | 0.1
C13A A14U A41C | 0.07
C13A A25G G27U | 0.19
C13A A24C C37U | 0.05
A12U U20G G21A C31U | 0.07
C13A A16U G17C U28G U43C C45A | 0.02
C13A C23U U34C | 0.05
C13A C31A G40A | 0.07
C13A C15A A39U G44A | 0.09
C13A G22A C23A A41C | 0.01
C13A U28G G33U G44C | 0.01
A12U G40U C42U | 0.19
C13A G27A G44A | 0.05
C13A A14G G21A U34A | 0.05
C13A G33C G36A U38G | 0
C13A A14G G40U | 0.01
C13A G29U G35A G40C | 0.02
A12U U28G C45U | 0.75
C13A C18G U20G G30C | 0.01

Variant | self-cleavage
A12U G35U U43A | 0.16
C13A C37A C42U | 0.05
C13A U20A C23U | 0.05
C13A C23A G33U U43A | 0.07
C13A U28C G36A | 0.24
C13A G21C G35A A39G C46A | 0.1
A12U G27C G35C U38G | 0.02
C13A G27A G35U | 0.4
A12U G21C G29C | 0.19
C13A G17C C42A | 0.05
C13A G19C U20G G21U U32G | 0.16
C13A C23A A25U | 0.03
C13A U20A U38G | 0.01
C13A G19U A24G A25G | 0.13
C13A A16C G27A U32C G36C | 0.05
C13A C15U A16C G21A | 0.02
C13A A25U A39U C46A | 0.06
A12U C37U G44C | 0.02
C13A A39C C46G | 0.04
C13A A24U C42A | 0.01
C13A A26G U28G G30A | 0.02
C13A C15U G33A G40U | 0.1
C13A G27C U32A | 0.04
C13A A25U U32A | 0.01

Variant | self-cleavage
A12U G29C G40C C46A | 0
C13A A16U G29A | 0.07
C13A C37G A39C | 0.03
A12U U28C G33A C42G | 0.02
C13A G35A U38C | 0.1
C13A G21U G27U G33U U34A G40A G44C | 0.01
A12U U20A G21C G29U | 0.18
C13A C15G G35C A39U C42A G44U | 0.54
A12U G22C A24C G40A C42U | 0.01
C13A A39C C45A | 0.02
C13A C18A A26G G30U U34G G44U | 0
C13A G19C A24C | 0.02
A12U U20A G21A U32G U43A | 0.02
C13A C31U U43C | 0.09
C13A A26U G36C U43G | 0.02
C13A U20A U38A C46A | 0.02
C13A C15U A41U | 0.06
C13A G22U G29C | 0.1
A12U G21U G27C U34C | 0.05
C13A G19U U20A A24C C42U | 0.02
C13A G33A U38G C46U | 0.01
C13A G17U G22A C37G | 0.06
C13A C18G C46G | 0.05
C13A G40A G44U | 0.11

Variant | self-cleavage
A12U G29U C46A | 0.06
A12U U32A G33U G44A | 0.03
C13A G21C G30C U32G U34G C37U | 0.02
C13A A25G C46G | 0.01
A12U G19A U38G | 0.03
A12U U20C U38A G40C C46G | 0
C13A A25C U32A | 0.13
C13A G21U G33C U38C | 0.02
C13A G21C G40A | 0.07
A12U U32G G40U | 0.08
C13A G30U A39C C46U | 0.02
A12U G33C G36A A41G | 0.04
C13A G21U G35U U43A | 0.2
C13A C18U G21C | 0.05
C13A U32G G44C | 0.05
C13A A24G G27A | 0.03
C13A C15A C18U G30A | 0.13
C13A A14C C37G | 0.03
C13A G17U C18A | 0.03
C13A G30C C37G | 0.02
C13A A16U U32C | 0.06
C13A C31U U34G | 0.03
A12U G22C U32C U34G G36U | 0.02
C13A G17U A26U A41U | 0.15

Variant | self-cleavage
C13A C18G U28G G29C C31U U38C | 0.01
C13A A24U G27C C42U | 0.02
A12U G22A C42U | 0.29
A12U G17C G36C | 0.02
A12U G21C A25U U43C | 0.03
C13A C15A U32C | 0
A12U G29A U38G | 0.02
C13A C23A U28C | 0.05
C13A C15U A16U G44A C45G | 0.2
C13A A14U G21U | 0.01
C13A A25G G40U | 0.02
A12U G29U G40U | 0.14
A12U G17A G33A C45A | 0.01
A12U G22U C31A U34C | 0.04
C13A G17C G36C C45G | 0.01
A12U G21A A25U | 0.35
C13A G33A G44A | 0.07
C13A A16G G17U A41C | 0.06
C13A U28A U34G G44C | 0.01
A12U G30U C42U | 0.03
C13A A26U U28A G29U | 0.03
C13A G17U G27U | 0.18
A12U G21U G40U | 0.06
